Among all 48,000 compounds or so, about 120 (0.25%) were called active. Inconclusive results (about 4%) are left out. The call rests on the fitted dose curve; in most records, active means well fitted activation curve with a large enough effect; inconclusive means small, poorly fitted or top-dose-only effect, or another doubt; inactive means no such curve, though single readings can be large or run the other way. Some of the results follow.

This note sets out measurements from PubChem BioAssay AID1508624 (National Center for Advancing Translational Sciences (NCATS), 2021).

The assay in a line: Primary qHTS for Identification of Small Molecule Activators of Huntingtin-Antisense Promoter Activity. Further: nearly all actives have a fitted effect of over 55% in size. To be noted: HEK293 HTT-AS promoter firefly luciferase reporter, 24 h; series mostly up to 57.5 µM; activity change, positive = activation: at the top concentration. The method, boiled down:
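Firefly luciferase readout (Dual-Glo, 10 min RT) after 24 h, 37 °C compound exposure (final up to 57.5 uM) of HEK293 reporter cells cultured 24 h beforehand; PTC124 at 50 uM final as control inhibitor; activity scaled vehicle 0%, zero RLU -100%.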
Background: Quantitative high-throughput screening tests each substance at several concentrations.
On to `O=C(CSCc1ccc(F)cc1)N1CCc2c([nH]c3ccccc23)C1c1ccc(F)cc1` (stereo unspecified), for which the “activity change, positive = activation” value is inactive: -31.8%.

As for `O=C(CCn1c(=O)c2cccn2c2cccnc21)Nc1ccccc1Br`, the “activity change, positive = activation” value was inactive: -11.4%.

As to `Cc1nn(S(=O)(=O)c2ccc(F)cc2)c(C)c1S(=O)(=O)N1CCCCC1`, the “activity change, positive = activation” value is inactive: -9.83%.

`Cc1c(C(=O)Nc2cccc(C(F)(F)F)c2)oc2ccc(S(=O)(=O)N3CCC4(CC3)OCCO4)cc12`: the “activity change, positive = activation” value is inactive: -31%.

For the molecule `CC(C)(C)C(=O)Nc1nnc2n1CCS2`, the “activity change, positive = activation” value was inactive: -2.97%.

As for `COc1ccc(NC(=O)CSc2c3c(nc4ccccc24)CCC3)cc1Cl`, the “activity change, positive = activation” value was inactive: -23.6%.

For the molecule `CCN[C@H]1CN(CCCOC)S(=O)(=O)c2sc(S(N)(=O)=O)cc21`, the “activity change, positive = activation” value was inactive: -0.744%.

Take `Cc1ccc2c(c1)N(C(=O)CCC(=O)Nc1ccc(F)cc1F)CC(C)O2` (stereo unspecified): the “activity change, positive = activation” value was inactive: -11.4%.

With `CCOc1ccccc1N(C)C(=O)c1cc(S(=O)(=O)NCCc2ccc(Cl)cc2)ccc1F`, the “activity change, positive = activation” value was inactive: -44.4%.

Consider `CCOc1ccc(NC(=O)c2ccc3c(c2)nnn3C2CCCC2)cc1`, for which the “activity change, positive = activation” value is inactive: -8.82%.

As for `CCN(CC)S(=O)(=O)c1ccc(NC(=O)c2ccc3c(=O)n4c(nc3c2)CCCCC4)cc1`, the “activity change, positive = activation” value was inactive: -52%.

With `Cc1ccccc1CNC(=O)CCc1cn(Cc2ccccc2C)c2ccccc12`, the “activity change, positive = activation” value was inactive: -25.8%.

As to `CC(C)(C)c1ccc(C(=O)N2CCC(c3noc(-c4ccc(S(=O)(=O)N5CCCC5)cc4)n3)CC2)cc1`, the “activity change, positive = activation” value is inactive: -20.5%.

Turning to `CCc1ccccc1NC(=O)CSc1nc(C)c(C(=O)Nc2ccccc2)c(-c2ccc(Cl)cc2)c1C#N`, the “activity change, positive = activation” value is inactive: -1.6%.

Consider `Cc1ccc(NC(=O)C2CCN(S(=O)(=O)c3cccc4nonc34)CC2)c(Cl)c1`, for which the “activity change, positive = activation” value is inactive: -14.4%.

`CCOC(=O)c1c(C)[nH]c(C)c1S(=O)(=O)N1CCC(C(=O)NCc2cccc(C)c2)CC1`: the “activity change, positive = activation” value was inactive: -3.38%.

Turning to `O=C(Nc1ccc(-c2nc3ccccc3s2)c(O)c1)c1ccc(Br)cc1`, the “activity change, positive = activation” value was inactive: 12.5%.

With `Cc1ccc(CN(C(=O)COc2ccc([N+](=O)[O-])cc2)c2ccccn2)cc1`, the “activity change, positive = activation” value is inactive: -31.3%.

For the molecule `CCN(CC)CCCNC(=O)c1cnc(SC)nc1-c1ccccc1`, the “activity change, positive = activation” value was inactive: -10.9%.

Turning to `CCN(CC)CCCNC(=O)c1cn(C)c2ccc(S(=O)(=O)N(C)C3CCCCC3)cc2c1=O`, the activity change, positive = activation is inactive: 11.4% [at 11.5 µM, percent change from vehicle, -100% = no light].

Take `CCOCCc1nn2c(=O)cc(COC(=O)CNC(=O)c3cccc(C)c3)nc2s1`: the “activity change, positive = activation” value is inactive: 2.5%.

Consider `Cc1ccc2c(=O)cc(C(=O)Nc3nc4ccc(Cl)cc4s3)oc2c1C`, for which the “activity change, positive = activation” value was inactive: 2.64%.

As for `COc1cccc(-c2ncnn2-c2sc3c(c2C#N)CCCCC3)c1OC`, the “activity change, positive = activation” value is inactive: 12%.

On to `CCN(C(=O)CSc1nc2ncccc2[nH]1)c1ccc(C(C)C)cc1`, for which the “activity change, positive = activation” value was inactive: -23.5%.

For the molecule `O=C(COc1ccc(Cl)cc1)Nc1nnc(S(=O)(=O)N2CCc3ccccc32)s1`, the “activity change, positive = activation” value was inactive: -24.6%.

In the case of `CCOc1ccc(NC(=O)c2cnc(N3CCCC3)nc2C)cc1`, the “activity change, positive = activation” value was inactive: 3.56%.

As to `COc1ccc(CNc2nc3c(-c4cccc(C)c4)nnn3c3ccccc23)cc1`, the “activity change, positive = activation” value was inactive: -1.98%.

With `Cc1nn(CC(=O)N2CCC(C)CC2)c(=O)c2cc3sccc3n12`, the “activity change, positive = activation” value is inactive: -11%.

As to `CCOc1ccc(CCNC(=O)c2cn(C)c3ccc(S(=O)(=O)N4CCCCCC4)cc3c2=O)cc1OCC`, the “activity change, positive = activation” value is inactive: -7.44%.

Take `COc1ccccc1NC(=O)c1c(NCc2ccc(OC)c(OC)c2OC)sc2c1CCC2`: the “activity change, positive = activation” value is inactive: -26.7%.

For the molecule `CCOC(=O)c1c(C)[nH]c(C)c1S(=O)(=O)N(C)CC(=O)N1CCN(c2ccccc2)CC1`, the “activity change, positive = activation” value was inactive: -6%.

As for `CC(C)c1ccc(NC(=O)Cn2cc(S(=O)(=O)N3CCN(c4ccccc4F)CC3)c3ccccc3c2=O)cc1`, the “activity change, positive = activation” value was inactive: -9.41%.

As to `Cc1ccc(S(=O)(=O)c2nnn3c2nc(N2CCN(c4ccccc4F)CC2)c2cc(Cl)ccc23)cc1C`, the “activity change, positive = activation” value is inactive: 9.42%.

As to `COc1ccc(/C=C/C(=O)Nc2ccc3nc4c(c(Nc5ccccc5OC)c3c2)CCCC4)cc1`, the “activity change, positive = activation” value was inactive: -94.2%.

Turning to `O=C(c1ccc2c(c1)N(Cc1cccc(F)c1)C(=O)c1ccccc1S2)N1CCOCC1`, the “activity change, positive = activation” value was inactive: -14.4%.

On to `Cc1ccccc1CN1C(=O)c2ccccc2S(=O)c2ccc(C(=O)NC3CCC(C)CC3)cc21` (stereo unspecified), for which the “activity change, positive = activation” value was inactive: -15.3%.

Regarding `CC(=O)N1c2c(cc(Br)cc2S(=O)(=O)N2CCN(c3cc(C)ccc3C)CC2)CC1C` (stereo unspecified), the “activity change, positive = activation” value is inactive: -24%.

For `OC[C@H](Cc1ccccc1)Nc1nc(Oc2ccc3c(c2)CCC3)nc2c1ncn2Cc1ccc(-c2ccccc2)cc1`, the “activity change, positive = activation” value is inactive: -28.3%.

Regarding `Cc1ccc(S(=O)(=O)c2nnn3c2nc(N2CCCC2)c2sccc23)cc1C`, the “activity change, positive = activation” value was inactive: -11.9%.

As for `CC1=C(C#N)C(NC(=O)c2ccccc2Cl)(C(F)(F)F)C(=O)N1` (stereo unspecified), the “activity change, positive = activation” value was inactive: 7.31%.

Consider `CCc1ccc(NC(=O)c2sc3nc(C)c(Cl)c(C)c3c2NC(=O)c2ccccc2OC)cc1`, for which the “activity change, positive = activation” value is inactive: -1.04%.

Turning to `COc1ccc(OC)c(NC(=O)C2=C(C)C(=O)OC23CCCCCC3)c1`, the “activity change, positive = activation” value is inactive: -8.65%.

For the molecule `CC(Oc1ccc(F)cc1)C(=O)N1CCC(c2nc3ccccc3s2)CC1` (stereo unspecified), the “activity change, positive = activation” value is inactive: -36.1%.

With `Cn1ncc2c(N3CCN(c4cccc(Cl)c4)CC3)ncnc21`, the “activity change, positive = activation” value was inactive: -20.3%.

In the case of `CCOC(=O)N1CCc2c(sc(NCc3sccc3C)c2C(=O)Nc2ccc(OC)cc2OC)C1`, the “activity change, positive = activation” value is inactive: -86.2%.

On to `Cc1cc(C)cc(NC(=O)C(Cc2ccccc2)NS(=O)(=O)c2ccc3c(c2)c(=O)n(C)c(=O)n3C)c1` (stereo unspecified), for which the “activity change, positive = activation” value is inactive: -21.2%.
